# Data reported in the supplement of paper PMC8728848.
# The list shows a part of the results.
# B1: FimA-N3 (Actinomyces oris) (protein)
# chain: MHHHHHHSSGVDLGTENLYFQSNAGLQGAQFQLYKAKNAYANTCSNEKEGAPIAINGQTTLTTDAQGAIDIKGLFISDSIDGADRDNQVNAMERCYVLVETKAPAGYVLPAGNGAATPVKVKAGEETTDN
# Key:
# Test in all cases: glycan array binding signal (z-score within array); higher = stronger binding
# Conditions in all cases: glycan notation: IUPAC condensed, linker removed
# [1] = target: Neu5Ac(a2-6)Gal(b1-4)GlcNAc(b1-2)Man(a1-3)[Man(a1-6)]Man(b1-4)GlcNAc(b1-4)GlcNAc
# How it was run: (§1)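 Glycan array data were curated from 3228 arrays in the Consortium for Functional Glycomics database and kept only where the protein sequence was available. Glycan names were converted to IUPAC-condensed notation, and columns mapping to the same glycan were averaged. The binding signal is a within-array Z-score, averaged across arrays of the same protein sequence at different concentrations or buffers and across linkers. Negative Z-scores can be read as non-binding.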
# [2] = target: Neu5Ac(a2-6)Gal(b1-4)GlcNAc(b1-2)Man(a1-3)[Neu5Ac(a2-3)Gal(b1-4)GlcNAc(b1-2)Man(a1-6)]Man(b1-4)GlcNAc(b1-4)GlcNAc
# How it was run: as §1
# [3] = target: Neu5Ac(a2-6)Gal(b1-4)GlcNAc(b1-2)Man(a1-3)[Neu5Ac(a2-6)Gal(b1-4)GlcNAc(b1-2)Man(a1-6)]Man(b1-4)GlcNAc(b1-4)GlcNAc
# How it was run: as §1
# [4] = target: Neu5Ac(a2-6)Gal(b1-4)GlcNAc(b1-2)Man(a1-3)[Neu5Ac(a2-6)Gal(b1-4)GlcNAc(b1-2)Man(a1-6)]Man(b1-4)GlcNAc(b1-4)[Fuc(a1-6)]GlcNAc
# How it was run: as §1
# [5] = target: Neu5Ac(a2-6)Gal(b1-4)GlcNAc(b1-2)Man(a1-6)Man(b1-4)GlcNAc(b1-4)GlcNAc
# How it was run: as §1
# [6] = target: Neu5Ac(a2-6)Gal(b1-4)GlcNAc(b1-2)Man(a1-6)[Gal(b1-4)GlcNAc(b1-2)Man(a1-3)]Man(b1-4)GlcNAc(b1-4)GlcNAc
# How it was run: as §1
# [7] = target: Neu5Ac(a2-6)Gal(b1-4)GlcNAc(b1-2)Man(a1-6)[GlcNAc(b1-2)Man(a1-3)]Man(b1-4)GlcNAc(b1-4)GlcNAc
# How it was run: as §1
# [8] = target: Neu5Ac(a2-6)Gal(b1-4)GlcNAc(b1-2)Man(a1-6)[Man(a1-3)]Man(b1-4)GlcNAc(b1-4)GlcNAc
# How it was run: as §1
# [9] = target: Neu5Ac(a2-6)Gal(b1-4)GlcNAc(b1-2)[Neu5Ac(a2-6)Gal(b1-4)GlcNAc(b1-4)]Man(a1-3)[GlcNAc(b1-4)][Neu5Ac(a2-6)Gal(b1-4)GlcNAc(b1-2)[Neu5Ac(a2-6)Gal(b1-4)GlcNAc(b1-6)]Man(a1-6)]Man(b1-4)GlcNAc(b1-4)GlcNAc
# How it was run: as §1
# [10] = target: Neu5Ac(a2-6)Gal(b1-4)GlcNAc(b1-2)[Neu5Ac(a2-6)Gal(b1-4)GlcNAc(b1-4)]Man(a1-3)[GlcNAc(b1-4)][Neu5Ac(a2-6)Gal(b1-4)GlcNAc(b1-4)Man(a1-6)]Man(b1-4)GlcNAc(b1-4)GlcNAc
# How it was run: as §1
# [11] = target: Neu5Ac(a2-6)Gal(b1-4)GlcNAc(b1-2)[Neu5Ac(a2-6)Gal(b1-4)GlcNAc(b1-6)]Man(a1-6)[Neu5Ac(a2-6)Gal(b1-4)GlcNAc(b1-2)Man(a1-3)][GlcNAc(b1-4)]Man(b1-4)GlcNAc(b1-4)GlcNAc
# How it was run: as §1
# [12] = target: Neu5Ac(a2-6)Gal(b1-4)GlcNAc(b1-3)Gal(b1-3)GlcNAc
# How it was run: as §1
# [13] = target: Neu5Ac(a2-6)Gal(b1-4)GlcNAc(b1-3)Gal(b1-4)GlcNAc
# How it was run: as §1
# [14] = target: Neu5Ac(a2-6)Gal(b1-4)GlcNAc(b1-3)Gal(b1-4)GlcNAc(b1-2)Man(a1-3)[Neu5Ac(a2-6)Gal(b1-4)GlcNAc(b1-3)Gal(b1-4)GlcNAc(b1-2)Man(a1-6)]GalNAc
# How it was run: as §1
# [15] = target: Neu5Ac(a2-6)Gal(b1-4)GlcNAc(b1-3)Gal(b1-4)GlcNAc(b1-3)Gal(b1-4)GlcNAc
# How it was run: as §1
# [16] = target: Neu5Ac(a2-6)Gal(b1-4)GlcNAc(b1-3)Gal(b1-4)GlcNAc(b1-3)Gal(b1-4)GlcNAc(b1-2)Man(a1-3)[Neu5Ac(a2-6)Gal(b1-4)GlcNAc(b1-3)Gal(b1-4)GlcNAc(b1-3)Gal(b1-4)GlcNAc(b1-2)Man(a1-6)]GalNAc
# How it was run: as §1
# [17] = target: Neu5Ac(a2-6)Gal(b1-4)GlcNAc(b1-3)Gal(b1-4)GlcNAc(b1-3)GalNAc
# How it was run: as §1
# [18] = target: Neu5Ac(a2-6)Gal(b1-4)GlcNAc(b1-3)Gal(b1-4)GlcNAc(b1-3)[Neu5Ac(a2-6)Gal(b1-4)GlcNAc(b1-3)Gal(b1-4)GlcNAc(b1-6)]GalNAc
# How it was run: as §1
# [19] = target: Neu5Ac(a2-6)Gal(b1-4)GlcNAc(b1-3)Gal(b1-4)GlcNAc(b1-6)[Gal(b1-3)]GalNAc
# How it was run: as §1
# [20] = target: Neu5Ac(a2-6)Gal(b1-4)GlcNAc(b1-3)Gal(b1-4)[Fuc(a1-3)]GlcNAc(b1-3)Gal(b1-4)[Fuc(a1-3)]GlcNAc
# How it was run: as §1
# [21] = target: Neu5Ac(a2-6)Gal(b1-4)GlcNAc(b1-3)GalNAc
# How it was run: as §1
# [22] = target: Neu5Ac(a2-6)Gal(b1-4)GlcNAc(b1-3)[Neu5Ac(a2-6)Gal(b1-4)GlcNAc(b1-6)]GalNAc
# How it was run: as §1
# [23] = target: Neu5Ac(a2-6)Gal(b1-4)GlcNAc(b1-6)GalNAc
# How it was run: as §1
# [24] = target: Neu5Ac(a2-6)Gal(b1-4)GlcNAc(b1-6)[Gal(b1-3)GlcNAc(b1-3)]Gal(b1-4)Glc
# How it was run: as §1
# [25] = target: Neu5Ac(a2-6)Gal(b1-4)GlcNAc(b1-6)[Gal(b1-3)]GalNAc
# How it was run: as §1
# [26] = target: Neu5Ac(a2-6)Gal(b1-4)GlcNAc6S
# How it was run: as §1
# [27] = target: Neu5Ac(a2-6)GalNAc
# How it was run: as §1
# [28] = target: Neu5Ac(a2-6)GalNAc(b1-4)GlcNAc
# How it was run: as §1
# [29] = target: Neu5Ac(a2-6)GalNAc(b1-4)GlcNAc6S
# How it was run: as §1
# [30] = target: Neu5Ac(a2-6)GlcNAc(b1-4)GlcNAc
# How it was run: as §1
# [31] = target: Neu5Ac(a2-6)GlcNAc(b1-4)GlcNAc(b1-4)GlcNAc
# How it was run: as §1
binder,measurement,setting,value
B1,glycan array binding signal (z-score),[1],0.82
same,glycan array binding signal (z-score),[2],0.214
same,glycan array binding signal (z-score),[3],0.03
same,glycan array binding signal (z-score),[4],-0.033
same,glycan array binding signal (z-score),[5],-0.562
same,glycan array binding signal (z-score),[6],-0.608
same,glycan array binding signal (z-score),[7],0.223
same,glycan array binding signal (z-score),[8],0.03
same,glycan array binding signal (z-score),[9],0.872
same,glycan array binding signal (z-score),[10],0.321
same,glycan array binding signal (z-score),[11],-0.248
same,glycan array binding signal (z-score),[12],-0.189
same,glycan array binding signal (z-score),[13],-0.049
same,glycan array binding signal (z-score),[14],-0.327
same,glycan array binding signal (z-score),[15],-0.309
same,glycan array binding signal (z-score),[16],-0.028
same,glycan array binding signal (z-score),[17],0.137
same,glycan array binding signal (z-score),[18],-0.453
same,glycan array binding signal (z-score),[19],-0.138
same,glycan array binding signal (z-score),[20],-0.37
same,glycan array binding signal (z-score),[21],-0.16
same,glycan array binding signal (z-score),[22],-0.133
same,glycan array binding signal (z-score),[23],-0.026
same,glycan array binding signal (z-score),[24],-0.101
same,glycan array binding signal (z-score),[25],0.503
same,glycan array binding signal (z-score),[26],0.383
same,glycan array binding signal (z-score),[27],-0.189
same,glycan array binding signal (z-score),[28],-0.44
same,glycan array binding signal (z-score),[29],-0.087
same,glycan array binding signal (z-score),[30],-0.185
same,glycan array binding signal (z-score),[31],2.65
